# Results taken from paper PMC11852966.
# Chains of the proteins cited; added tags and fusions are not shown. Lines headed by an entry give the natural chain unless they say otherwise; changes in a name come on top.
# UniProt P0DOE5: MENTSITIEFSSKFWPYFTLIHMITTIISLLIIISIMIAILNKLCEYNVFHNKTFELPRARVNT
# Where a chain is given by its changes, count along the chain named. Names may count otherwise. Results are given in words; binding and its absence hold for the method and conditions named. In cells and extracts the contact can be indirect. Some results given as binding are weak or reduced against the parent protein; the word gives no strength. For some of these results: Tags and fused reporters may be left off the sequences shown.
# B1: GBP5-Flag (protein, UniProt Q96PP8 1-586)
# chain: MALEIHMSDPMCLIENFNEQLKVNQEALEILSAITQPVVVVAIVGLYRTGKSYLMNKLAGKNKGFSVASTVQSHTKGIWIWCVPHPNWPNHTLVLLDTEGLGDVEKADNKNDIQIFALALLLSSTFVYNTVNKIDQGAIDLLHNVTELTDLLKARNSPDLDRVEDPADSASFFPDLVWTLRDFCLGLEIDGQLVTPDEYLENSLRPKQGSDQRVQNFNLPRLCIQKFFPKKKCFIFDLPAHQKKLAQLETLPDDELEPEFVQQVTEFCSYIFSHSMTKTLPGGIMVNGSRLKNLVLTYVNAISSGDLPCIENAVLALAQRENSAAVQKAIAHYDQQMGQKVQLPMETLQELLDLHRTSEREAIEVFMKNSFKDVDQSFQKELETLLDAKQNDICKRNLEASSDYCSALLKDIFGPLEEAVKQGIYSKPGGHNLFIQKTEELKAKYYREPRKGIQAEEVLQKYLKSKESVSHAILQTDQALTETEKKKKEAQVKAEAEKAEAQRLAAIQRQNEQMMQERERLHQEQVRQMEIAKQNWLAEQQKMQEQQMQEQAAQLSTTFQAQNRSLLSELQHAQRTVNNDDPCVLL
# B2: endogenous GBP5 (protein, UniProt Q96PP8 1-586)
# chain: B1 chain
# B3: eYFP-GBP5 (protein, UniProt Q96PP8 1-586)
# chain: B1 chain
# B4: GBP5-Flag C583A (protein, UniProt Q96PP8 1-586)
# chain: B1 chain with C583A
# Key:
# [1] = target: T1, eCFP-KRT9 (human (cDNA from HEK293T mRNA)) (UniProt P35527); assay: FRET or BRET; FRET by bleaching of the eYFP acceptor in Hela cells transfected for 24 hours and fixed in 4% paraformaldehyde; Olympus FV 3000 confocal; eCFP intensity in the bleached area
# T1 sequence: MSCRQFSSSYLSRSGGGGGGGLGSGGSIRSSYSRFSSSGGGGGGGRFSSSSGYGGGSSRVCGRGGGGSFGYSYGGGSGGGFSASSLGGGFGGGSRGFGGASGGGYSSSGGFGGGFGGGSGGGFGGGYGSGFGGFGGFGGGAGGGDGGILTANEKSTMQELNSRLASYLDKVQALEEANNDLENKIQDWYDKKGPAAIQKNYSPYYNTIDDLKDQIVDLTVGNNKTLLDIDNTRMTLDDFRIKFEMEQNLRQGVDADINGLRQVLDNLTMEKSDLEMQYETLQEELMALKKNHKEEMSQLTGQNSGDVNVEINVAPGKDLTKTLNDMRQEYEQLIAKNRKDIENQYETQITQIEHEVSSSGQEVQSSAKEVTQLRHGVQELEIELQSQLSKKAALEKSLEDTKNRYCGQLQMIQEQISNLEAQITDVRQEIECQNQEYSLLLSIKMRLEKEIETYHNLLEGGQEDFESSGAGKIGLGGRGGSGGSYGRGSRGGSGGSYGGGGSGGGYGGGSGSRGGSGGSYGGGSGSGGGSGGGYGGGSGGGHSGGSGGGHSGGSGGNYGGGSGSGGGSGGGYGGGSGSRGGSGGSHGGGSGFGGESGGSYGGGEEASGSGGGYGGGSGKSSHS
# [2] = target: T2, GFP-202–302 of KRT9 (human (cDNA from HEK293T mRNA)) (UniProt P35527); assay: co-IP; […] (20 mM Tris-HCl pH 7.5, 100 mM NaCl, 0.1 mM EDTA, 0.05% Tween-20); […]
# T2 sequence: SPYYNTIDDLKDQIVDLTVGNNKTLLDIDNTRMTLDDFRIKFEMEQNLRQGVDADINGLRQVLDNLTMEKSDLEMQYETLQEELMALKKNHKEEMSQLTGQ
# [3] = target: T3, KRT9-Myc (human (cDNA from HEK293T mRNA)) (UniProt P35527); assay: as above
# T3 sequence: T1 sequence
# [4] = target: T4, KRT9-Myc △202–302 (human (cDNA from HEK293T mRNA)) (UniProt P35527); assay: as above
# T4 sequence: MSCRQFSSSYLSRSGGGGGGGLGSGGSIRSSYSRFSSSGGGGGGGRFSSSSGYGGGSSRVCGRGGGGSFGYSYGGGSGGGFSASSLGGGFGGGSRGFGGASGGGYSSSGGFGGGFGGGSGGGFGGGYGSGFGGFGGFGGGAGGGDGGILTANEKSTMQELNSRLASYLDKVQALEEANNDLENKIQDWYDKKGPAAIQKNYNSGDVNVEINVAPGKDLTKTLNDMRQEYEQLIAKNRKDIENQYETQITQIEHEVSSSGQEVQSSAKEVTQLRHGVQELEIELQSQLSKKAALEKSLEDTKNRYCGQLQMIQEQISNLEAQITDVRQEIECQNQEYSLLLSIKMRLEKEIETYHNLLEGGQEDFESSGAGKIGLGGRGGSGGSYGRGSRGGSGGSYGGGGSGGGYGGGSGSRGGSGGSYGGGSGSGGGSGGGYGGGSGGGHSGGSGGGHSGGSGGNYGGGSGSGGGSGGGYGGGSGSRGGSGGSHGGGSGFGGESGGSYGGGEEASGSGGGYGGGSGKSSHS
# [5] = target: T5, GFP-202–466 of KRT9 (human (cDNA from HEK293T mRNA)) (UniProt P35527); assay: as above
# T5 sequence: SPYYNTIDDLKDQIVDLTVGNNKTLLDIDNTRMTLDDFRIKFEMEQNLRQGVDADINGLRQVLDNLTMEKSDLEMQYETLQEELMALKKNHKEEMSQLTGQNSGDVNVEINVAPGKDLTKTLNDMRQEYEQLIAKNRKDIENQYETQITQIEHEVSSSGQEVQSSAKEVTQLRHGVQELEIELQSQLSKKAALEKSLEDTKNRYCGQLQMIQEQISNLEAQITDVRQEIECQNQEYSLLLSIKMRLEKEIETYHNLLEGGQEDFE
# [6] = target: T6, KRT9-Myc △319–466 (human (cDNA from HEK293T mRNA)) (UniProt P35527); assay: as above
# T6 sequence: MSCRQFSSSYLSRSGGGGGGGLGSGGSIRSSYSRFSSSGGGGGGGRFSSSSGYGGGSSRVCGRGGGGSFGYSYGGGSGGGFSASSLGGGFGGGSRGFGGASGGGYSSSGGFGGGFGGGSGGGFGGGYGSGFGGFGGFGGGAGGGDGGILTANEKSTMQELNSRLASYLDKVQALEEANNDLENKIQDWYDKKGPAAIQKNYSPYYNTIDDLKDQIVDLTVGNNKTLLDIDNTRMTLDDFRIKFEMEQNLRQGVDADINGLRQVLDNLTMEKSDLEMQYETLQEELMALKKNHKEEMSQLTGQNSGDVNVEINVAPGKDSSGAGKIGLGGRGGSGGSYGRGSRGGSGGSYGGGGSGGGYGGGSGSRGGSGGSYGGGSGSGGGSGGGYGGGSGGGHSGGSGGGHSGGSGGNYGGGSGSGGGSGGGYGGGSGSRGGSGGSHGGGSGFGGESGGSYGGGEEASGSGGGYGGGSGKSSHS
# [7] = target: T7, KRT9-Myc △151–191 (human (cDNA from HEK293T mRNA)) (UniProt P35527); assay: as above
# T7 sequence: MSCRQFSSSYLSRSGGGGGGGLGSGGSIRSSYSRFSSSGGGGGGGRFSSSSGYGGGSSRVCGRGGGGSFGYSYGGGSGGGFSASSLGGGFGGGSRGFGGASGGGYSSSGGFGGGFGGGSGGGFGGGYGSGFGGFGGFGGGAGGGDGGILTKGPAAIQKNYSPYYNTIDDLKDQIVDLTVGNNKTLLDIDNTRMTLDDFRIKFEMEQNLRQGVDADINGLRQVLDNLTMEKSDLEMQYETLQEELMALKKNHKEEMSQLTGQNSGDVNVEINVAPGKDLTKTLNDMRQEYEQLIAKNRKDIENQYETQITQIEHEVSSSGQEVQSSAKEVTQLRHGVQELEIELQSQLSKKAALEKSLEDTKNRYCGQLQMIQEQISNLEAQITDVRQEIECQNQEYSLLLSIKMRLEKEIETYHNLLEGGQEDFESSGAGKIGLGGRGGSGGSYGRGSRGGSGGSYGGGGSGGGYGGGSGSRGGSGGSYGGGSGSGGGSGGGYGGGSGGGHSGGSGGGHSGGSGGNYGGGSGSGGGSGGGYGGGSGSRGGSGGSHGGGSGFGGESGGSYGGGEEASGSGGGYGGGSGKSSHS
# [8] = target: SH-HA (in A549 cells) (respiratory syncytial virus (strain of the cDNA not stated)) (UniProt P0DOE5); assay: co-IP
molecule,measurement,setting,value
eYFP-SH (from UniProt P0DOE5 2-64),binding,[1],no binding
B1,binding,[2],no binding
same,binding,[3],binds
same,binding,[4],binds weakly
same,binding,[5],binds
same,binding,[6],binds
same,binding,[7],binds
B2,binding,[8],binds
B3,binding,[1],binds
B4,binding,[3],no binding
